Results on ten compounds are retold here after PubChem BioAssay AID280 (DTP/NCI, 2004).

The test concerns nude mice, LOX melanoma ip, survival T/C. Kind of test: NCI In Vivo Anticancer Drug Screen. Data for tumor model Human Amelanotic Melanoma (LOX) (intraperitoneal) in NU/NU BALB/C (nude) mice. To be noted: endpoint: median survival time, higher = longer survival. Here is the method:
The antitumor activity of compounds was measured in mice bearing transplantable tumors. Survival or tumor size were measured and the results are expressed as the measurement made in the treated group (T) divided by the measurement made in the vehicle treated control group (C). The tumor model used in this assay is Human Amelanotic Melanoma (LOX) (intraperitoneal) in NU/NU BALB/C (nude) mice

The structures appear in SMILES notation. Toxic doses and inconclusive results are not listed. Certain results were filed several times, with different values. This is not the full list of results. There may be further records. The records of an entry are repeated measurements (runs, samples, wells, individuals or studies).

`CC(=O)NC(CCc1ccc(Cl)c(Cl)c1)c1cccc(O)c(=O)c1` (stereo not drawn): the T/C (dose: 144.0 mg/kg/injection, schedule: Q04DX003 (ip), vehicle: Klucel (hydroxypropylcellulose) (HPC)) is 105 % of control and 153 % of control.
Regarding `CN=C(N)N/N=C(\C)c1ccc2oc3ccc(/C(C)=N/NC(N)=NC)cc3c2c1`, where the note is “dose: 50.0 mg/kg/injection, schedule: Q04DX003 (ip), vehicle: Klucel (hydroxypropylcellulose) (HPC)”, the T/C is reported as 97 % of control, 108 % of control, 158 % of control.
As for `O=C1C=CC(=CC=C2C=CN(CCCCCCCCCCCO)C=C2)C=C1`, the T/C runs as follows: (dose: 167.0 mg/kg/injection, schedule: Q04DX003 (ip), vehicle: saline with Tween-80) 120 % of control and 172 % of control; (dose: 278.0 mg/kg/injection, schedule: Q04DX003 (ip), vehicle: saline with Tween-80) 114 % of control and 162 % of control.
Turning to `CC(/C=C/C=C/C=C/C=C/C=C/C(O)=C1/C(=O)C(CCC(=O)O)N(C)C1=O)=C\C(C)C(OC1CC(O)C(O)C(C)O1)C(C)C` (stereo not drawn), the T/C (dose: 64.0 mg/kg/injection, schedule: Q04DX003 (ip), vehicle: water) was 121 % of control and 187 % of control.
As for `CN=C(NC)c1ccc(NC(=O)/C=C\c2ccc(/C=C/C(=O)Nc3ccc(C(=NC)NC)cc3)cc2)cc1`, the T/C (dose: 6.25 mg/kg/injection, schedule: Q04DX003 (ip), vehicle: Klucel (hydroxypropylcellulose) (HPC)) is 105 % of control and 184 % of control.
Consider `CCCCCCCCCCCCCCCCCCOCC(CO)OC` (stereo not drawn), for which, under “dose: 75.0 mg/kg/injection, schedule: Q04DX003 (ip), vehicle: saline with Tween-80”, the T/C was 120 % of control and 171 % of control.
With `Cn1cc(C2NC(=O)c3ccccc3N2)c2ccccc21` (stereo not drawn), the T/C reads like this: (dose: 600.0 mg/kg/injection, schedule: Q04DX003 (ip), vehicle: Klucel (hydroxypropylcellulose) (HPC)) 106 % of control and 161 % of control; (dose: 1200.0 mg/kg/injection, schedule: Q04DX003 (ip), vehicle: Klucel (hydroxypropylcellulose) (HPC)) 93 % of control and 320 % of control.
With `COc1c(O)cc2c(c1OC)-c1ccc(SC)c(=O)cc1C(NC(C)=O)CC2` (stereo not drawn), the T/C runs as follows: (dose: 1.25 mg/kg/injection, schedule: Q04DX003 (ip), vehicle: Klucel (hydroxypropylcellulose) (HPC)) 118 % of control and 152 % of control; (dose: 2.5 mg/kg/injection, schedule: Q04DX003 (ip), vehicle: Klucel (hydroxypropylcellulose) (HPC)) 106 % of control and 152 % of control.
As for `Cc1c(O)/c(=C\O)c2nc3c(=O)ccc(C(=O)NCCN(C)C)c3[nH]c2c1=O`, the T/C (dose: 200.0 mg/kg/injection, schedule: Q04DX003 (ip), vehicle: water) was 116 % of control and 169 % of control.
For `CC(O)CCC(=O)c1ccoc1` (stereo not drawn), the T/C (dose: 18.0 mg/kg/injection, schedule: Q01DX001 (ip), vehicle: propolene glycol) was 107 % of control, 121 % of control, 151 % of control.
